Laboratory results taken from PubChem BioAssay AID686979 (National Center for Advancing Translational Sciences (NCATS), 2013).
“And” between values parts separate entries of the source, which are not always exact repeats. Equal entries are not always repeated. Out of some 420,000 compounds screened, about 50,000 (12%) were called active. The inconclusive results got no clear call from the source; some entries with a clear call stand among them for comparison. Calls come from the whole dose curve; as a rule, active = well fitted inhibition curve with a large enough effect; inconclusive = small, poorly fitted or top-dose-only effect; inactive = flat fitted curve, though single readings scatter. Where the call is inconclusive, the potency comes from a doubtful curve fit.

Assay: qHTS for Inhibitors of human tyrosyl-DNA phosphodiesterase 1 (TDP1): qHTS in cells in presence of CPT; note: nearly all actives have a fitted effect of over 55% in size
Conditions: chicken DT40 Tdp1-/-;hTDP1 cells + 20 nM CPT, ATP luminescence, 48 h; activity change, negative = growth inhibition: at 46.2 µM (top of the series)
Summary of the method: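 Chicken DT40 Tdp1-/- cells complemented with human TDP1, 400 cells/well, exposed to compounds plus 20 nM camptothecin for at least 48 h at 37 C; viability read as ATP content by CellTiter-Glo luminescence.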
% is set by controls: 0 for no effect and ±100 for the full control effect; potency is the fitted concentration of half-maximal effect; tags give direction and shape of the fitted curve.

| Compound | Potency | activity change, negative = growth inhibition |
| --- | --- | --- |
| Cc1ccc2nc(-c3ccc4c(c3)OCCO4)cn2c1 | active: 1.3 µM |  |
| CCOc1cccc2sc(N3CCN(C(=O)c4ccco4)CC3)nc12 | active: 14.6 µM |  |
| COc1ccccc1OCCOCCOc1c(C)cc(C)cc1Br | inconclusive: 25.9 µM [inhibitor, single point] |  |
| CC(=O)OCCN(C)c1cc(SC(C)C)c2nonc2c1[N+](=O)[O-] | active: 13 µM |  |
| O=C(COC(=O)c1ccccc1)Nc1cc(S(=O)(=O)N2CCCCCC2)ccc1Cl | inconclusive: 13 µM [inhibitor, partial curve, poor fit] |  |
| Cc1cc(C(=O)N/N=C/C(Cl)=C/c2ccccc2)c(C)o1 | active: 29.1 µM |  |
| COc1ccc(OC(=O)c2cccc(S(=O)(=O)N3CCCC3)c2)cc1 | inconclusive: 25.9 µM [inhibitor, single point] |  |
| CCN(CC)C(=O)c1ccc2c3c(cccc13)C(=O)N(CCc1ccc(OC)c(OC)c1)C2=O | active: 8.2 µM |  |
| CCN(CC)C(=O)CSc1nc2c(sc(=S)n2Cc2ccco2)c(=O)n1-c1ccccc1 | inconclusive: 23.1 µM [inhibitor, single point] |  |
| Cc1cc(C)c(OCC(=O)NCC(c2ccco2)N2CCCCC2)c(C)c1 (centres undefined) | inconclusive: 18.4 µM [inhibitor, single point] |  |
| CCC(Sc1nc(C)cc(C)n1)C(=O)Nc1ccc(Cl)cn1 (centres undefined) | inconclusive: 14.6 µM [inhibitor, single point] |  |
| O=C(NCCCN1CCN(c2ccc(F)cc2)CC1)Nc1ccccc1Cl | active: 20.6 µM |  |
| CN(Cc1ccccc1)C(=O)[C@@H]1CCCN1S(=O)(=O)c1ccc(Cl)cc1 | inactive |  |
| O=C(N/C(=C/c1ccco1)C(=O)N1CCc2ccccc21)c1ccco1 | inconclusive: 29.1 µM [inhibitor, single point] |  |
| Cc1cccc(Oc2ccc(NC(=O)C3CC=CCC3C(=O)O)cc2)c1 (centres undefined) | inactive |  |
| COc1ccc(C(=O)Nc2ccc(N3CCN(C)CC3)cc2)cc1 | inconclusive: 13 µM [inhibitor, partial curve] |  |
| COc1ccc(-c2nc3cnccn3c2NC2CCCCC2)cc1-c1cccc(Cl)c1 | inconclusive: 20.6 µM [inhibitor, single point] and inconclusive: 29.1 µM [inhibitor, single point] |  |
| Cc1cc(C2C(C#N)=C(N)SC(N)=C2C#N)c(C)s1 | inconclusive: 18.4 µM [inhibitor, single point] |  |
| Cc1cc(/C=C2\C(=N)N3N=C(C(C)C)SC3=NC2=O)c(C)n1Cc1ccccc1 | inactive |  |
| Cc1nc2c(C)cccc2cc1C(=O)N/N=C/c1ccc(C(=O)O)cc1 | inconclusive: 29.1 µM [inhibitor, single point] |  |
| Cc1ccc([C@@H]2CC(=O)[C@@H]3CN(S(=O)(=O)c4ccc(C)cc4)[C@H](c4ccc(Cl)cc4)C[C@@H]3N2S(=O)(=O)c2ccc(Cl)cc2)cc1 | inactive |  |
| C/C(=N\NC(N)=S)c1ccc2c(c1)OCCO2 | inactive |  |

| Compound | Potency | activity change, negative = growth inhibition |
| --- | --- | --- |
| CN(CC(=O)Nc1cccc(F)c1)C(=O)CCC1CCCCC1 | inconclusive: 32.6 µM [inhibitor, single point] |  |
| CCN(CC(=O)NCc1ccc(Cl)cc1)C(=O)c1sccc1C | inconclusive: 29.1 µM [inhibitor, single point] |  |
| O=c1[nH]n(-c2ccccc2)c(=O)c2ccccc12 | inactive |  |
| CCOC(=O)c1c(C)oc2nc(C)nc(NCCc3ccc(C)cc3)c12 | active: 20.6 µM |  |
| COc1cc(NC(=O)CN2CCCN(Cc3cccc(F)c3)S2(=O)=O)cc(OC)c1 | inconclusive: 20.6 µM [inhibitor, single point] |  |
| CN(C)/C=C/C(=O)/C=C/c1cn(-c2ncc(C(F)(F)F)cc2Cl)c2ccccc12 | inconclusive: 29.1 µM [inhibitor, single point] |  |
| Cc1cccc(C)c1N(CC(=O)Nc1cccc(N(C)S(C)(=O)=O)c1)S(C)(=O)=O | inconclusive: 16.4 µM [inhibitor, partial curve] |  |
| Cc1cccc(NC(=O)Cn2c(=O)n(Cc3ccco3)c(=N)c3c4c(sc32)COC(C)(C)C4)c1 | inconclusive: 29.1 µM [inhibitor, single point] |  |
| C=CCNc1ncnc2c1cnn2-c1ccc(Cl)cc1 | inconclusive: 29.1 µM [inhibitor, single point] |  |
| CCN(CC)CCC/C(=N\O)C(O)(c1ccccc1)c1ccccc1 | inconclusive: 25.9 µM [inhibitor, partial curve, poor fit] |  |
| CCCCN(CCCC)S(=O)(=O)c1ccc(NC(=O)Cc2cccs2)cc1 | inconclusive: 29.1 µM [inhibitor, single point] |  |
| CCOC(=O)[C@@H]1[C@H]2COc3ccccc3[C@H]2N2C(=O)N(c3ccc(C)cc3)C(=O)[C@]12C | inactive |  |
| COc1ccccc1N1CCN(CCN2C(=O)CC3(CCCC3)CC2=O)CC1 | inconclusive: 5.8 µM [inhibitor, full curve, poor fit] |  |
| CC(C(=O)OCC(=O)Nc1cccc(S(=O)(=O)N(C)C)c1)N1C(=O)c2ccccc2C1=O (centres undefined) | inactive |  |
| COc1c(C=O)c2c(c(OC)c1OC)-c1ccc(OC)c(=O)cc1C(NC(C)=O)CC2 (centres undefined) | active: 0.0082 µM |  |
| CNC(=S)N/N=C/c1c(C)c(C(=O)c2ccc(F)cc2)n2ccccc12 | inconclusive: 20.6 µM [inhibitor, single point] |  |
| CCc1ccc(N/C(=N/c2nc(C)cc(C)n2)NC(C)=O)cc1 | inconclusive: 25.9 µM [inhibitor, single point] |  |
| Cc1c(C(=O)N2CCCC2)oc2c1-c1nn(CC(=O)NCCCN3CCCCC3)cc1CC2 | inactive |  |
| CCCC1NC(=O)c2cccnc2-n2c1nc1ccc(C)cc1c2=O (centres undefined) | inactive |  |
| CC1(c2nnnn2Cc2ccccc2)CCC(=O)N1CCOc1ccccc1 (centres undefined) |  | inconclusive: -32.7% [inhibitor] |
| CC[C@H](C)N(C)C(=O)c1cc2ccccc2c(-c2ccccc2Cl)n1 | inconclusive: 33.5 µM [inhibitor, single point] |  |
| N#CC1=C(N)Oc2cc(N)ccc2C1c1ccccc1 (centres undefined) | active: 23.1 µM |  |
